Source: PubChem BioAssay AID2675 (National Center for Advancing Translational Sciences (NCATS), 2010)
The campaign covered roughly 280,000 compounds. About 100 (0.036%) were called active. Inconclusive means that the source gave no clear call. Such entries were picked first, then a sample of the others. The call rests on the fitted dose curve; in most records, active means well fitted inhibition curve with a large enough effect in the signal ratio, with a control signal flat (not every such curve was filed as active); inconclusive means small, poorly fitted or top-dose-only effect, or effect the other way, or a change in a side signal; inactive means no such curve, though single readings can be large or run the other way; the % refers to the signal ratio. Potencies of inconclusive entries are doubtful fits and often do not repeat. “Side channel” marks fits to a control or component signal instead of the main read-out.

The compounds below were run against Muscleblind-like protein 1 (Homo sapiens) (UniProt Q9NR56) (assay: qHTS Assay for Inhibitors of MBNL1-poly(CUG) RNA binding). Conditions: TR-FRET MBNL1-His/biotin-(CUG)12 binding, 665/545 ratio; series mostly up to 57.5 µM.
UniProt Q9NR56, sequence (Q9NR56 whole entry, looked up): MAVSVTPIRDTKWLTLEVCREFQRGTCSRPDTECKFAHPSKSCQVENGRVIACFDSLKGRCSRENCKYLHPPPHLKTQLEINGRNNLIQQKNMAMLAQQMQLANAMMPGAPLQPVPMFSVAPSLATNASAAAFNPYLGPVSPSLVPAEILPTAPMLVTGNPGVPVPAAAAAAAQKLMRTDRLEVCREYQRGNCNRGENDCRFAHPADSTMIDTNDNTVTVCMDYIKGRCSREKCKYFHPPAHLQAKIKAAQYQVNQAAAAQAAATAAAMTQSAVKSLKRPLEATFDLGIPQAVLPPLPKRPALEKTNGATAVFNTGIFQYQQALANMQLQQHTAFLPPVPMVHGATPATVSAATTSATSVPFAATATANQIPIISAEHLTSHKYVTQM
Summary of the method: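 Compounds (final 92 nM to 58 uM) are added to His-tagged MBNL1 and biotin-(CUG)12, then terbium anti-His antibody and streptavidin-XL665 (5 nM final). After 60 min at room temperature, the 665/545 nm ratio is read.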
Potency means the concentration at half of the fitted maximal effect; tags describe the fitted curve by direction and shape or compound fluorescence and quenching.

Q: How did the Potency turn out when `O=C(O)c1cc(NC(=O)c2ccccc2[N+](=O)[O-])ccc1O` was run?
A: inconclusive: 8.91 µM [quencher, side channel, partial curve]

Q: Which Potency does the source give for `Cc1noc(NS(=O)(=O)c2ccc(NC(=O)Cc3ccc([N+](=O)[O-])cc3)cc2)c1C` here?
A: inconclusive: 28.2 µM [quencher, side channel, partial curve]

Q: How did the Potency turn out when `Cn1ncc([N+](=O)[O-])c1C(=O)N/N=C/c1c[nH]c2ccccc12` was run?
A: inconclusive: 7.08 µM [quencher, partial curve]

Q: With `COCCN(Cc1cc2cc3c(cc2nc1Cl)OCO3)C(C)=O` as the compound, how does the Potency read?
A: inconclusive: 126 µM [inhibitor, partial curve, poor fit]

Q: With `CCc1nnc(NC(=O)c2cc(OC)c(OC)cc2[N+](=O)[O-])s1` as the compound, how does the Potency read?
A: inconclusive: 20 µM [quencher, side channel, partial curve]

Q: For `CCCn1c(C)cc(/C=C(\C#N)C(=O)OCC(=O)Nc2cc(OC)c(OC)c(OC)c2)c1C`, which Potency is on record?
A: inconclusive: 22.4 µM [quencher, side channel, partial curve]

Q: For `O=C(O)c1ccc2c(c1)C(=O)N(Cc1ccc3c(c1)OCO3)C2=O`, which Potency is on record?
A: inconclusive: 39.8 µM [quencher, side channel, single point]

Q: How did the Potency turn out when `Cc1ccccc1N=C1NC(=O)/C(=C/c2cccnc2)S1` was run?
A: inactive

Q: For `Cc1cccc(/C=C2\Sc3ccc(C(=O)N4CCOCC4)cc3N(C)C2=O)c1`, which Potency is on record?
A: inconclusive: 28.2 µM [quencher, side channel, single point]

Q: With `O=[N+]([O-])c1cccnc1Oc1cccnc1` as the compound, how does the Potency read?
A: inconclusive: 31.6 µM [quencher, side channel, single point]

Q: Which Potency does the source give for `Cc1ccc(/C=N/NC(=O)CN2C(=O)CSc3ccccc32)o1` here?
A: inconclusive: 22.4 µM [quencher, side channel, single point]

Q: Which Potency does the source give for `Cc1cccc(NC(=O)c2ccc(NCC3CCCO3)c([N+](=O)[O-])c2)n1` (centres undefined) here?
A: inconclusive: 11.2 µM [quencher, side channel, partial curve]

Q: `O=[N+]([O-])c1ccc(N2CCN(CCOCCO)CC2)c([N+](=O)[O-])c1` was tested. Which Potency did it give?
A: inconclusive: 15.8 µM [quencher, side channel, partial curve]

Q: `CCOC(=O)N1CCN(C(=O)C2CCCN(c3nc4ccc(OCC)cc4s3)C2)CC1` (centres undefined) was tested. Which Potency did it give?
A: inconclusive: 39.8 µM [quencher, side channel, partial curve, poor fit]

Q: `COc1ccc2[nH]c(=O)c(NC(N)=S)nc2c1` was tested. Which Potency did it give?
A: inconclusive: 14.1 µM [quencher, partial curve]

Q: `O=C(NCCCn1ccnc1)c1nn2c(C(F)(F)F)cc(-c3ccccc3)nc2c1Cl` was tested. Which Potency did it give?
A: inconclusive: 17.8 µM [quencher, side channel, partial curve]

Q: With `O=[N+]([O-])c1ccc2nc(SCc3cn4cc(Cl)ccc4n3)[nH]c2c1` as the compound, how does the Potency read?
A: inconclusive: 11.2 µM [quencher, side channel, partial curve]

Q: Which Potency does the source give for `Cc1ccc(CNCC(O)(c2ccccc2)c2ccccc2)cc1` here?
A: inactive

Q: `O=C(NC1CCCCCC1)C(=O)NC1CCCC1` was tested. Which Potency did it give?
A: inactive

Q: Which Potency does the source give for `CC(=O)C1=C(O)C(=O)N(c2ccc(O)cc2)C1c1cccc([N+](=O)[O-])c1` (centres undefined) here?
A: inconclusive: 17.8 µM [quencher, side channel, partial curve]

Q: `Cc1n[nH]c(=S)n1/N=C/c1ccc(-c2ccccc2[N+](=O)[O-])o1` was tested. Which Potency did it give?
A: inconclusive: 28.2 µM [quencher, single point]

Q: Which Potency does the source give for `CC(NC(=O)c1ccc(N(C)C)c([N+](=O)[O-])c1)c1ccc(-n2ccnc2)cc1` (centres undefined) here?
A: inconclusive: 15.8 µM [quencher, side channel, partial curve]

Q: Which Potency does the source give for `CCOC(=O)c1c(CN2CCCCC2)n(C)c2cc(Br)c(O)cc12` here?
A: inactive

Q: Which Potency does the source give for `CC(C)CCNC(=S)Nc1ccc([N+](=O)[O-])cc1` here?
A: inconclusive: 25.1 µM [quencher, side channel, single point]

Q: For `COc1ccc2c(c1)NC(=O)CC(c1ccccc1)=N2`, which Potency is on record?
A: inconclusive: 17.8 µM [quencher, side channel, partial curve]

Q: `Cc1ccc(-c2ccc(/C=N/n3cnnc3)o2)cc1Cl` was tested. Which Potency did it give?
A: inconclusive: 12.6 µM [quencher, side channel, partial curve]

Q: Which Potency does the source give for `COc1ccc(CN(Cc2ccc(OC)cc2)S(=O)(=O)c2ccc(-n3cnnn3)c(C)c2)cc1` here?
A: inconclusive: 39.8 µM [inhibitor, single point]

Q: How did the Potency turn out when `O=C(C1CCCN(S(=O)(=O)c2cccnc2)C1)N1CCn2c1nc1ccccc12` (centres undefined) was run?
A: inconclusive: 0.126 µM [fluorescent, side channel, full curve, poor fit]

Q: Which Potency does the source give for `O=C1/C(=C/c2ccc(N3CCCC3)cc2)NC(=S)N1C1CC1` here?
A: inconclusive: 7.08 µM [quencher, side channel, partial curve]

Q: How did the Potency turn out when `CCSc1nnc(NC(=O)c2nc(S(=O)(=O)Cc3ccc(F)cc3)ncc2Cl)s1` was run?
A: inactive

Q: For `Cc1onc(-c2ccccc2)c1C(=O)N/N=C/c1ccc(O)c([N+](=O)[O-])c1`, which Potency is on record?
A: inconclusive: 15.8 µM [quencher, side channel, partial curve]

Q: `COCCn1c(C)nnc1SCC(=O)NNC(=O)c1ccc(Cl)cc1` was tested. Which Potency did it give?
A: inactive

Q: How did the Potency turn out when `CCOc1ccc(NC(=O)CSc2ncnc3c2sc2ccccc23)cc1` was run?
A: inconclusive: 22.4 µM [fluorescent, side channel, single point]

Q: With `COC(=O)COc1ccc2c(c1)O/C(=C\c1ccco1)C2=O` as the compound, how does the Potency read?
A: inconclusive: 15.8 µM [quencher, partial curve]

Q: Which Potency does the source give for `Clc1cccc(NCc2nnc(SCc3ccccc3)o2)c1` here?
A: inactive

Q: With `O=S(=O)(c1ccccc1)c1ccc(NCc2ccco2)cc1` as the compound, how does the Potency read?
A: inactive

Q: For `COc1cccc2cc(C(=O)C3=C(O)C(=O)N(Cc4ccco4)C3c3cccnc3)oc12` (centres undefined), which Potency is on record?
A: inactive

Q: Which Potency does the source give for `O=C(O)c1cnn2c(C(F)(F)F)cc(-c3ccco3)nc12` here?
A: inconclusive: 14.1 µM [quencher, partial curve]

Q: For `O=[N+]([O-])c1ccc(S(=O)(=O)N(CCCN2CCOCC2)Cc2cccs2)cc1`, which Potency is on record?
A: inconclusive: 4.47 µM [quencher, side channel, partial curve]
